Assay [1] has as its system Colletotrichum orbiculare. Particulars: for Test H control value (anthracnose on cucumber): 250 ppm spray, 2.5 ml/pot, investigated 6 to 10 days after inoculation.
Assay [2] has as its system Phytophthora infestans. In kind it is in vivo. The settings on record: for Test F control value (late blight on tomato): class of control value, Table 7.
Assay [3] relates to Magnaporthe grisea. It is filed as in vivo. The settings on record: class of control value, Table 7.

For `CCn1c(-c2ccc(OC)cc2Cl)c(-n2cc(F)cn2)cc(Br)c1=O` [Compound 363], the “control value, Test H (anthracnose on cucumber)” value in assay [1] (250 ppm sprayed (2.5 ml/pot) before inoculation, assessed 6 to 10 days after inoculation) is reported as “H (H shows the control value more than 50%)”. In addition, the “control value, Test F (late blight on tomato)” value in assay [2] (Table 7, Test F) was “L (L shows the control value of 50% or less)”.

For the molecule `CCn1c(-c2c(F)cccc2Cl)c(-n2cc(F)cn2)cc(Br)c1=O` [Compound 380], the “Test A control value (blast on rice)” value in assay [3] was “H (H shows the control value more than 50%)”. Besides, the “Test H control value (anthracnose on cucumber)” value (“Test H control value” below) in assay [1] is “H (H shows the control value more than 50%)”. In addition, in assay [2], the “Test F control value (late blight on tomato)” value (“Test F control value” below) is given as “L (L shows the control value of 50% or less)”.

As for `O=c1ccc(-c2sccc2Cl)c(-c2c(F)cccc2F)n1CC(F)F` [Compound 394], the “Test A control value (blast on rice)” value in assay [3] was “H (H shows the control value more than 50%)”. For the same molecule, the “Test H control value” value in assay [1] is recorded as “H (H shows the control value more than 50%)”. For the same molecule, in assay [2], the “Test F control value” value is recorded as “H (H shows the control value more than 50%)”.

Consider `CCn1c(-c2ccccc2F)c(-n2cc(F)cn2)ccc1=O` [Compound 382], for which the “Test A control value (blast on rice)” value in assay [3] is “H (H shows the control value more than 50%)”. Also, the “Test H control value” value in assay [1] is on record as “H (H shows the control value more than 50%)”. Besides, the “Test F control value” value in assay [2] is “L (L shows the control value of 50% or less)”.

The values above are taken from US11178870B2 (priority 2017, dated 2021).
